Hit rate of the full screen: of about 310,000 compounds, about 11,000 (3.5%) were called active. The shares of active, inactive and inconclusive entries below differ from those in the screen. The call rests on the fitted dose curve; in most records, active means well fitted inhibition curve with a large enough effect; inconclusive means small, poorly fitted or top-dose-only effect, or effect the other way; inactive means flat fitted curve, though single readings scatter. Potencies of inconclusive entries are left out as doubtful fits.
Test: VP16 counterscreen qHTS for inhibitors of ROR gamma transcriptional activity;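 further: Gal4-VP16 expression switched on by copper sulfate through the metallothionein promoter; nearly all actives have a fitted effect of over 50% in size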
Conditions: Drosophila S2 Gal4-VP16 UAS-luciferase, luminescence, 20 h; series mostly up to 53.6 µM
Potency means the concentration at half of the fitted maximal effect; tags describe the fitted curve by direction and shape.

SMILES	Potency
CCn1cc(C(=O)NCc2ccc3c(c2)OCO3)c(=O)c2cc(F)c(N3CCN(C)CC3)cc21	inactive
Cc1nn(Cc2ccc(Cl)cc2Cl)c(C)c1NC(=O)CCl	inconclusive [inhibitor, single point]
O=C(Cn1c(=S)[nH]c2ccccc2c1=O)NCCc1ccccc1	inactive
Cc1c([N+](=O)[O-])c(C(=O)Sc2ccc(Br)cc2)nn1C	inconclusive [inhibitor, single point]
O=C(COc1ccc(Cl)cc1Cl)NC(=O)N1CCCCC1	inconclusive [inhibitor, single point]
O=C1NC(=Nc2cccc(O)c2)S/C1=C\c1cccc([N+](=O)[O-])c1	inactive
COCc1ccc(CN2CCC(C(=O)Nc3cccc(-c4cscn4)c3)CC2)o1	inconclusive [inhibitor, partial curve, poor fit]
Cc1cc(C)c(NC(=O)CN(C2CCCCC2)C2CCCCC2)c(C)c1	inactive
Cc1nnc(N/N=C/c2cc([N+](=O)[O-])c(N3CCC(C)CC3)cc2N2CCC(C)CC2)n1N	inconclusive [inhibitor, single point]
Cc1ccc(OCC(=O)Nc2ccccc2-c2ccccc2)cc1	inconclusive [activator, single point]
COc1cccc(NC(=O)Nc2nccc(C)n2)c1	inconclusive [inhibitor, partial curve, poor fit]
CCN(CC)S(=O)(=O)c1ccc(N2CCCCC2)c(NC(=O)/C(C#N)=C/c2ccc(OC)cc2)c1	inactive
CCOc1cc(/C=C(\C#N)C(=O)Nc2cccc(C(=O)O)c2)cc(Br)c1OC(=O)c1ccc(OC)cc1	inconclusive [inhibitor, single point]
Cn1c(=O)c2c(nc(NCc3cccnc3)n2Cc2cccc(C(F)(F)F)c2)n(C)c1=O	inconclusive [inhibitor, single point]
CCCc1nc2ccccc2n1C(=S)SC	inconclusive [inhibitor, single point]
Cc1ccc(-n2nnnc2SCc2nc3sc(C)c(C)c3c(=O)[nH]2)cc1	inconclusive [inhibitor, single point]
C=C(C)CN(CC)c1nc(N)c(C#N)c(CC#N)c1C#N	inconclusive [inhibitor, partial curve, poor fit]
Cc1cc(C)cc(Oc2ccccc2C=O)c1	inconclusive [inhibitor, single point]
CC(=O)N1CCCc2cc(S(=O)(=O)N3CCCC(C(=O)N4CCN(c5cccc(Cl)c5)CC4)C3)ccc21 (configuration not stated)	active: 3.98 µM
CC1CCCCN1C(=O)C1CC(c2ccc(F)cc2)=NO1 (configuration not stated)	inactive
Cc1cc(C)n(-c2ccc(C(=O)Nc3cccc(S(=O)(=O)N(C)C)c3)cc2)n1	active: 7.08 µM
Cc1ccc(S(=O)(=O)NC(=O)Nc2c(C)n(C)n(-c3ccccc3)c2=O)cc1	inactive
COc1cc(CNCCc2ccccc2)ccc1OCC(N)=O	inconclusive [inhibitor, single point]
Cc1ccc(Cl)cc1NC(=S)NN	inconclusive [inhibitor, single point]

SMILES	Potency
COc1ccc(C(=O)O/N=C(\N)c2ccc(OC)c(OC)c2)cc1	inconclusive [inhibitor, partial curve, poor fit]
Cc1[nH]n2c(=O)c3c(nc2c1-c1ccccc1)CCCC3	inconclusive [inhibitor, single point]
CN(C(=O)CSc1nnc(-c2ccccc2)o1)c1c(N)n(Cc2ccccc2)c(=O)[nH]c1=O	inactive
Cc1ccc(-n2cnc(=O)c3cccnc32)cc1	inconclusive [inhibitor, single point]
Cc1ccc(C)c(N(C)C(=O)CCS(=O)(=O)c2cccc3nonc23)c1	inactive
COc1ccc(C2NC(=S)NC3=C2CCCC3=C2SCCS2)cc1 (configuration not stated)	inconclusive [inhibitor, single point]
CC1CCN(C(=S)c2cn(Cc3ccccc3F)c3ccccc23)CC1	active: 4.47 µM
COc1ccccc1-n1nnnc1S(=O)(=O)Cc1ccc(Cl)cc1	inconclusive [inhibitor, single point]
O=C(CN1CCCC1)Nc1sc2c(c1C(=O)Nc1ccccc1)CCCC2	active: 10 µM
CCNc1c(NS(=O)(=O)c2ccc(C3CCCCC3)cc2)c(=O)oc2ccccc12	inconclusive [inhibitor, single point]
COc1ccc(-c2nc(CS(=O)(=O)CC(=O)NC3CCC(C)CC3)c(C)o2)cc1 (configuration not stated)	inconclusive [inhibitor, partial curve, poor fit]
CCOc1cc(S(=O)(=O)NCc2ccccn2)ccc1Cl	inactive
Cc1ccc(C)c(NC(=O)Cn2nc(-c3ccccc3)nc2-c2ccccc2)c1	inconclusive [inhibitor, single point]
COc1ccc(NC(=S)NCCN2CCC(C)CC2)cc1Cl	inconclusive [inhibitor, single point]
Cc1cccc(CNc2nc(-c3ccc4c(c3)OCO4)nc3ccccc23)c1	inconclusive [inhibitor, single point]
Cc1ccc(N2CCN(S(=O)(=O)c3c(C)noc3C)CC2C)cc1 (configuration not stated)	inactive
CCOC(=O)/C(=C/Nc1ccc(F)c(F)c1)[N+](=O)[O-]	inactive
C=CCn1c(O)c(N=NC(=S)Nc2ccc(OC)c(Cl)c2)c2ccccc21	active: 3.98 µM
Cc1cc(C)n(-c2nc(Nc3ccccc3C(F)(F)F)nc(-n3nc(C)cc3C)n2)n1	active: 7.08 µM
CCCNC(=O)c1cc2c(C(F)(F)F)nn(C)c2s1	inactive
COC(=O)c1sc2[nH]c(=S)n(N)c(=O)c2c1C	inconclusive [inhibitor, single point]
O=C(NN=C1c2ccccc2-c2ccccc21)c1ccccc1Br	active: 10 µM
Cc1cc(C(=O)Nc2ccc([N+](=O)[O-])cn2)cs1	inactive
O=C(N/N=C\c1cccs1)c1sccc1-n1cccc1	inconclusive [inhibitor, single point]

SMILES	Potency
Cc1ncc(CO)c2c1Oc1nc(-c3ccccc3F)nc(SCC(=O)N(C)c3ccccc3)c1C2	inconclusive [inhibitor, single point]
O=C(O)COn1c(-c2ccccc2)nc2ccc(Cl)cc21	inconclusive [inhibitor, single point]
CC1=NN(c2ccccc2)C(=O)/C1=C\C=C1/N(C)c2ccccc2C1(C)C	inconclusive [inhibitor, single point]
COc1ccc(-c2ccc3c(N)c(C(=O)c4ccc(OC)c(OC)c4)sc3n2)cc1	inconclusive [inhibitor, single point]
Cc1[nH]c2c(C)cccc2c(=O)c1Br	inconclusive [inhibitor, single point]
CCCCCCCCCCOC(=O)Cn1c(COc2ccccc2)[n+](C)c2ccccc21	inconclusive [inhibitor, single point]
COc1ccc(/C=N/n2c(N)nc3ccccc32)cc1OC	inconclusive [inhibitor, single point]
CC(C)NC(=O)c1ccc(-c2ccccc2C(F)(F)F)o1	inconclusive [inhibitor, single point]
CCOC(=O)C1(Cc2ccccc2)CCCN(C(=O)c2cnn(CC)c2)C1 (configuration not stated)	inconclusive [inhibitor, single point]
CCCn1nnc2ccccc2c1=O	inconclusive [inhibitor, single point]
Cc1ccc(SCc2ccc(C(=O)Nc3cc([N+](=O)[O-])ccc3C)cc2)cc1	inconclusive [inhibitor, single point]
CC(=O)c1ccc(Nc2cc(C)nc3c(C)cccc23)cc1	inconclusive [inhibitor, single point]
CCN(CC)C(=S)NC(=O)c1cccnc1	active: 5.62 µM
Cc1cc(Cl)ccc1NC(=S)NCc1ccco1	active: 10 µM
CCn1c2ccccc2c2cc(NC(=O)c3ccccc3-c3ccccc3C(=O)O)ccc21	inconclusive [inhibitor, single point]
CC(=O)Cn1ncc(N2CCOCC2)cc1=O	inconclusive [inhibitor, single point]
COc1ccc(C(=O)NNC(=O)c2ccccc2[N+](=O)[O-])cc1[N+](=O)[O-]	inactive
O=C(NC1CCCC1)C(c1ccsc1)N(CCc1ccccc1)C(=O)Cc1cccs1 (configuration not stated)	inconclusive [inhibitor, single point]
Oc1[nH]c2ccc(Br)cc2c1N=NC(=S)N1CCOCC1	active: 1.58 µM
S=C(NCc1ccc(Cl)cc1)NC12CC3CC(CC(C3)C1)C2	active: 3.16 µM
O=C(NCc1ccncc1)c1ccc2nc(Cc3ccccc3F)oc2c1	inactive
Cc1ccc(S(=O)(=O)NNC(=O)c2cc3cc4ccccc4nc3s2)cc1	inconclusive [inhibitor, single point]
COc1ccccc1-n1c(SCC(=O)Nc2cc(C)on2)nc2c([nH]c3ccccc32)c1=O	inactive
O=C(NC(=S)Nc1nc(-c2ccc([N+](=O)[O-])cc2)cs1)c1ccco1	inconclusive [inhibitor, full curve]

From PubChem BioAssay AID2546 (National Center for Advancing Translational Sciences (NCATS), 2010)
